Source: patent US11618753B2 (priority 2018, dated 2023)

System: MLKL phosphorylation, HT29-L23 human colorectal adenocarcinoma cells
Experiment: cells
Details: read-out: pMLKL HCS Cell Assay (IC50, uM)

Row | Compound | IC50 [µM]
1 | COc1ncc(-c2cc(CN3CCCC(=O)N3)c3c(N)ncnn23)cc1C(=O)N[C@@H]1CN(C(=O)C2CC(F)(F)C2)C[C@@H]1F [Example 1715, 5-(4-amino-5-((3-oxotetrahydropyridazin-1(2H)-yl)methyl)pyrrolo[2,1-f][1,2,4]triazin-7-yl)-N-((3R,4S)-1-(3,3-difluorocyclobutane-1-carbonyl)-4-fluoropyrrolidin-3-yl)-2-methoxynicotinamide] | 0.038
2 | COc1ncc(-c2cc(CN3CCCCN3)c3c(N)ncnn23)cc1C(=O)N[C@@H]1CN(C(=O)C2CC(F)(F)C2)C[C@@H]1F [Example 1716, 5-(4-amino-5-((tetrahydropyridazin-1(2H)-yl)methyl)pyrrolo[2,1-f][1,2,4]triazin-7-yl)-N-((3R,4S)-1-(3,3-difluorocyclobutane-1-carbonyl)-4-fluoropyrrolidin-3-yl)-2-methoxynicotinamide] | 0.014
3 | COc1ncc(-c2cc(CN3CCOCC3)c3c(N)ncnn23)cc1C(=O)N[C@@H]1CN(C(=O)OCC(F)(F)F)C[C@@H]1F [Example 1717, 2,2,2-trifluoroethyl (3R,4S)-3-(5-(4-amino-5-(morpholinomethyl)pyrrolo[2,1-f][1,2,4]triazin-7-yl)-2-methoxynicotinamido)-4-fluoropyrrolidine-1-carboxylate] | 0.00065
4 | COc1ncc(-c2cc(CN3CCOCC3)c3c(N)ncnn23)cc1C(=O)N[C@@H]1CN(S(=O)(=O)CCC(F)(F)F)C[C@@H]1F [Example 1718, 5-(4-amino-5-(morpholinomethyl)pyrrolo[2,1-f][1,2,4]triazin-7-yl)-N-((3R,4S)-4-fluoro-1-((3,3,3-trifluoropropyl)sulfonyl)pyrrolidin-3-yl)-2-methoxynicotinamide] | 0.00028
5 | COc1ncc(-c2cc(CN3CCOCC3)c3c(N)ncnn23)cc1C(=O)N[C@@H]1CN(S(=O)(=O)CC(F)(F)F)C[C@@H]1F [Example 1719, 5-(4-amino-5-(morpholinomethyl)pyrrolo[2,1-f][1,2,4]triazin-7-yl)-N-((3R,4S)-4-fluoro-1-((2,2,2-trifluoroethyl)sulfonyl)pyrrolidin-3-yl)-2-methoxynicotinamide] | 0.0011
6 | Cc1ncc(-c2cc(C(F)(F)F)c3c(N)ncnn23)cc1C(=O)NCCN1CCOC(c2ccccc2)C1 (centres unmarked) [Example 1720, 5-(4-amino-5-(trifluoromethyl)pyrrolo[2,1-f][1,2,4]triazin-7-yl)-2-methyl-N-(2-(2-phenylmorpholino)ethyl)nicotinamide] | 0.217
7 | Cc1ncc(-c2cc(C(F)(F)F)c3c(N)ncnn23)cc1C(=O)NCCN1CCOCC1c1ccccc1 (centres unmarked) [Example 1721, 5-(4-amino-5-(trifluoromethyl)pyrrolo[2,1-f][1,2,4]triazin-7-yl)-2-methyl-N-(2-(3-phenylmorpholino)ethyl)nicotinamide] | 0.042
8 | COc1ncc(-c2cc(C(F)(F)F)c3c(N)ncnn23)cc1C(=O)NCCN1CCCC(c2ccccc2)C1 (centres unmarked) [Example 1722, 5-(4-amino-5-(trifluoromethyl)pyrrolo[2,1-f][1,2,4]triazin-7-yl)-2-methoxy-N-(2-(3-phenylpiperidin-1-yl)ethyl)nicotinamide] | 0.295
9 | COc1ncc(-c2cc(C(F)(F)F)c3c(N)ncnn23)cc1C(=O)Nc1cn(Cc2ccccc2)cn1 [Example 1723, 5-(4-amino-5-(trifluoromethyl)pyrrolo[2,1-f][1,2,4]triazin-7-yl)-N-(1-benzyl-1H-imidazol-4-yl)-2-methoxynicotinamide] | 0.0031
10 | Cc1ncc(-c2cc(C(F)(F)F)c3c(N)ncnn23)cc1C(=O)Nc1cn(Cc2ccccc2)cn1 [Example 1724, 5-(4-amino-5-(trifluoromethyl)pyrrolo[2,1-f][1,2,4]triazin-7-yl)-N-(1-benzyl-1H-imidazol-4-yl)-2-methylnicotinamide] | 0.00061
11 | COc1ncc(-c2cc(C(F)(F)F)c3c(N)ncnn23)cc1C(=O)Nc1ccn(Cc2ccccc2)n1 [Example 1725, 5-(4-amino-5-(trifluoromethyl)pyrrolo[2,1-f][1,2,4]triazin-7-yl)-N-(1-benzyl-1H-pyrazol-3-yl)-2-methoxynicotinamide] | 0.02
